Data taken from a collection of fitness landscapes (doi:10.1016/j.celrep.2020.107928).
Whole data set: some 81,000 sequences, median “one-hybrid fitness for binding parS DNA” near -0.17, cut for the highest 2% near 0.51. Some of the results follow.

B1: Caulobacter ParB omega fusion; a variant is named by its letters at X, in order, B8GW30 (parent)
chain: MESVVVGEPGMSEGRRGLGRGLSALLGEVDAAPAQAPGEQLGGSREAPIEILQRNPDQPRRTFREEDLEDLSNSIREKGVLQPILVRPSPDTAGEYQIVAGERAWRAAQRAGLKTVPIMVRELDDLAVLEIGIIENVQRADLNVLEEALSYKVLMEKFERTQENIAQTIGKSXSHVANXMRLLXLPDEVQSYLVSGELTAXHARAIAAAADPVALAKQIIEGGLSVRETEALARKAPNLSAGKSKGGRPPRVKDTDTQALESDLSSVLGLDVSIDHRGSTGTLTITYATLEQLDDLCNRLTRGI

Variants of: B1
Test: one-hybrid fitness for binding parS DNA (scaled: cognate 1, non-cognate 0); higher = stronger binding
Conditions: with parS DNA site
How it was run: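 Selection: bacterial one-hybrid in E. coli USO, HIS3 reporter with the site 19 bp from the promoter, 48 hours at 37°C on M9-minus-histidine plus 0.1 mM IPTG and 5 mM 3-AT. Libraries were Caulobacter ParB with four randomised specificity codons, sequenced on Illumina before and after selection. Fitness is the rescaled log change in variant-to-wild-type read ratio, anchored to the cognate and non-cognate sites.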

one-hybrid fitness for binding parS DNA, 0.439:
RMKF

one-hybrid fitness for binding parS DNA, 0.324:
RVPA

one-hybrid fitness for binding parS DNA, 0.362:
RLNM

one-hybrid fitness for binding parS DNA, 0.269:
HRYG

one-hybrid fitness for binding parS DNA, ≤ 0.2:
DLPF
KLYV
GMQR
TLYN
EAAA
EAGL
IDSF
MDPG
HVMY
PAAV
MWNG
KQHG
VETS
KQMT
LTRY
QCYY
YTVM
YSSS
ICTL
VWKG
TLCW
LEKS
MIWS
LKLC
YLLD
AYKC
FLWC
SQMS
MKSM
TGMS
SDVV
LCHT
PMAV
PQMG
ACTW
VPQR
QHHN
MAYS
VRET
KSYC
QTRH
LALS
TPQI
NSGS
RWPI
KVHD
PWCG
FPGR
SCHM
KDLR
TTDL
HIKY
FVQR
RPEA
HKMT
FLWR
YGTP
LNMW
QPVI
RGHF
GTDG
NTYG
CWTG
FWTS
TTAC
PHQC
QNIY
MCER
PSHT
TAFR
WNFG
ENYA
NKHA
KLVG
QEWR
LAHG
TTCA
VVLY
SFTV
AHRL
IETL
RSCL
RGHN
YIMG
PSRW
HVAE
DIMI
CGPT
DCAG
REHF
QHKI
NMDG
LGPT
PENG
WTFT
PNRY
IWVG
NHHE
HVRY
SIDA
SHHQ
YHRI
TLMR
ALAQ
QRDK
QSNW
HRYR
LTHQ
EPSV
LKIF
YANS
KEIG
ATSR
TEIV
YLYS
SNAF
QPEV
GNMS
ARLM
SEKA
TEPC
DLNE
DQGG
QRCM
DWTD
QNYK
AGVI
EIAG
YFDL
DRSE
RVKI
ATMI
QSRN
GSRK
APDK
KEYD
HCAS
MVCA
NTET
PARM
HDDS
GQFL
RPTV
RRVM
VPLG
VPRC
GEAC
RNED
VNAG
VTTQ
GCIL
STIW
SCYV
TTAP
RVDL
PVTN
QQMM
AQNN
TLRD
HICT
WHHS
QQIS
ECRV
NPLS
HCKN
NGRR
WQKF
SHIL
SNHG
GPQT
GFTL
TIYN
SCYY
KLYG
YNKE
HPPR
EFDS
AAQR
RKWH
CQAG
KQRF
KKMG
KNVS
LKVN

one-hybrid fitness for binding parS DNA, 0.929:
RMKG

one-hybrid fitness for binding parS DNA, 0.402:
IKIM

one-hybrid fitness for binding parS DNA, 0.377:
RFSN

one-hybrid fitness for binding parS DNA, 0.211:
RMQK

one-hybrid fitness for binding parS DNA, 0.562:
RYQA

one-hybrid fitness for binding parS DNA, 0.378:
RSKM

one-hybrid fitness for binding parS DNA, 0.78:
RGTG
